Experimental data reported in PubChem BioAssay AID488969 (Vanderbilt High Throughput Screening Facility, 2010).
Whole data set: some 110,000 compounds, median “z-score” near -0.1, cut for the highest 2% near 2. The list shows a part of the results.

What follows are molecules tested against Metabotropic glutamate receptor 8 (Rattus norvegicus) (UniProt P70579) (assay: rat mGluR8 modulators via GIRK flux, primary screen, cell-based, thallium flux, HTS (AID 488969)). Settings: HEK293 rat mGluR8, GIRK (G protein-gated inwardly rectifying potassium channel) thallium flux, FluoZin2; at 10 µM; stronger effect = higher value; submaximal glutamate (EC20) added with thallium.
Chain of UniProt P70579 (P70579 whole entry, looked up): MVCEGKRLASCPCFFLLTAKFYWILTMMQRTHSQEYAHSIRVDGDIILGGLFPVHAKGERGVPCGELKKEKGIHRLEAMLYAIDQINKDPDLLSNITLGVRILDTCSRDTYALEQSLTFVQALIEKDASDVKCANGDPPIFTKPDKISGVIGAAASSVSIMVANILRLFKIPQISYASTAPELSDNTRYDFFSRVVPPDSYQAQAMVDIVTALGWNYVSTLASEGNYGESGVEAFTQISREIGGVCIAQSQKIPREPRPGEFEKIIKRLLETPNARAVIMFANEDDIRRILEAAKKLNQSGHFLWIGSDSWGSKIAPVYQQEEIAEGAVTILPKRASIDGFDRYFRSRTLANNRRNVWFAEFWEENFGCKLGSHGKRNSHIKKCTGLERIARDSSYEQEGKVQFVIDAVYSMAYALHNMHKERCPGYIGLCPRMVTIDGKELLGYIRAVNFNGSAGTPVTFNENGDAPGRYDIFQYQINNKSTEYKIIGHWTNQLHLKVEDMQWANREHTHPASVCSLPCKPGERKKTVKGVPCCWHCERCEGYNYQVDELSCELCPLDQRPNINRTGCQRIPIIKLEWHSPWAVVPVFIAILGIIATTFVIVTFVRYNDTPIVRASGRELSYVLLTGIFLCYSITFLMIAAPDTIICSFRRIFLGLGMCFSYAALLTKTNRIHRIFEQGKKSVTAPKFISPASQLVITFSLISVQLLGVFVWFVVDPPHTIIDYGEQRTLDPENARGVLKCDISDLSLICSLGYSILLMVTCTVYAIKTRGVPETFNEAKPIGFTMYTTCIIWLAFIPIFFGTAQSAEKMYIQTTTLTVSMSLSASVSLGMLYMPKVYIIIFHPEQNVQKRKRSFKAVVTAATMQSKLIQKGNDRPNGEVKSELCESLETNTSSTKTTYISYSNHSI

SMILES | z-score
CC1(C)CC(C2N3CC4(C)CN2CC(C)(C3)C4=O)CCO1 (stereo unspecified) | -0.134
COc1cccc(NC(=O)CSc2nc3c(oc4ccccc43)c(=O)[nH]2)c1 | -0.709
Clc1ccc(CNC2CCCC2)cc1 | 0.561
CC(C)c1nc(SCC(=O)N2CCOCC2)c2c(=O)n(C)c(=O)n(C)c2n1 | -0.272
Cn1c(CCN2CCOCC2)nc2cc(NC(=O)COc3ccccc3)ccc21 | -0.509
CNS(=O)(=O)c1cccc(C(=O)OCC(=O)/C=C2/N(C)c3ccccc3C2(C)C)c1 | -0.421
COCCNC(=S)N/N=C/c1ccccc1C(=O)O | -0.187
Cc1ccc(C(=O)COc2cccc(NC(=O)c3ccco3)c2)cc1 | -0.642
O=C(NCC1CCCO1)C1CCCN(S(=O)(=O)c2cccc3nsnc23)C1 (stereo unspecified) | 0.749
Cc1cc(C)n(-c2nc(N(C)C)nc(N(C)C)n2)n1 | 1.04
O=C(Nc1ccc(Br)cc1)c1cccc(N2C(=O)C3C4CCC(C4)C3C2=O)c1 (stereo unspecified) | -0.317
C#CCNc1nc(C)nc2c1nnn2Cc1ccccc1F | -1.29
c1coc(CN2CN=C(Nc3nc4ccccc4s3)NC2)c1 | -0.425
Cc1noc(C)c1C(=O)OC(C(=O)NC1CCCC1)c1ccc(F)cc1 (stereo unspecified) | 0.659
CCOc1ccc(NC(=O)c2cccc3c2C(=O)N(CCOC)C3)cc1 | 0.0598
C=CCOc1ccc(CN(C)CC(=O)N(CC(C)C)c2c(N)n(CC(C)C)c(=O)[nH]c2=O)cc1 | -0.182
C=CCNC(=S)NNC(=O)c1cccc(Br)c1 | -0.0521
COC(=O)c1ccc(CC(=O)c2c(C)cc(O)cc2O)o1 | 0.162
Cc1cc(C)cc(C(=O)N(NC(=O)Nc2ccc(Cl)cc2)C(C)(C)C)c1 | -0.37
CSc1ccccc1C(=O)NC1CCCCCC1 | -0.167
Cc1cccc2sc(NC(=O)C3c4ccccc4Oc4ccccc43)nc12 | 0.152
Cc1ccccc1CSCCNS(C)(=O)=O | -0.0619
Cc1ccc(NC(=O)CN2C(=O)S/C(=C\c3ccc(-c4cccc(C(=O)O)c4C)o3)C2=O)cc1 | -0.792
O=C1NC2(CCCCCC2)N=C1c1ccc(F)cc1 | -0.0831

SMILES | z-score
COc1ccc(-c2ccc(OC)cc2)cc1 | 0.26
O=C(N/N=C/c1sc(=O)n(-c2ccccc2)c1Cl)c1ccccc1 | 0.378
O=C(NCCCN1CCOCC1)c1cc2cc(Cl)cc(Cl)c2oc1=O | 0.221
CCn1c(CC(=O)Nc2ccc(C)c(Cl)c2)nnc1SCCOc1ccc(OC)cc1 | -0.101
Nc1nonc1-n1nnc(C(=O)c2ccccc2)c1-c1ccccc1 | -0.175
CCCCCC1CC(CC(=O)Nc2nncs2)C(=O)O1 (stereo unspecified) | 0.0374
Cc1ccc2cc(CN(Cc3ccco3)S(=O)(=O)c3c(C)ccc4nsnc34)c(=O)[nH]c2c1 | -0.0836
CCOC(=O)N1CCN(Cc2nc(N)nc(Nc3ccc(OC)cc3)n2)CC1 | 0.119
C/C(=N\NC(=O)CSCc1ccc([N+](=O)[O-])cc1)c1ccccc1O | 0.0621
Cc1ccc(/C=C2\Sc3ccccc3C2=O)s1 | -0.127
Cc1cccc(Cc2c(C)nc3nc(SCC(=O)NCc4ccco4)nn3c2C)c1 | -0.909
Cc1ccc(NCCC(=O)c2ccc(Cl)cc2)cc1C | -0.234
Cc1cc(NC(=O)CN2CCC(O)(c3cccc(F)c3)CC2)no1 | -0.799
O=C(NCCc1ccccc1)C(=O)NCC1CCCO1 (stereo unspecified) | 0.353
CNC(=O)CN(c1ccc(F)cc1)S(=O)(=O)c1cc(C)ccc1OC | -0.321
O=C(c1cccc(C(F)(F)F)c1)N1CCN(c2cc(=O)[nH]nc2-c2ccccc2)CC1 | -0.449
CN(C)S(=O)(=O)c1ccc2nc(NC(=O)c3cccs3)sc2c1 | -0.127
CCCNS(=O)(=O)c1ccc(C(=O)NCC2CCCO2)cc1 (stereo unspecified) | -0.395
FC(F)(F)c1cc(-c2ccccc2)nc(NCc2cccnc2)n1 | -0.506
NC(=O)CN1N=C(c2cc(Cl)sc2Cl)CSC1=O | 0.181
O=C(COC(=O)c1cccc(C(=O)OCC(=O)c2ccc(Br)cc2)n1)c1ccc(Br)cc1 | -0.199
Cn1c(=O)c2c(ncn2Cc2ccc(Cl)c(Cl)c2)n(C)c1=O | 1.2
Cc1cc(C)c2c(n1)sc1c(N3CCOCC3)ncnc12 | -0.159
CCOC(=O)CN(Cc1sccc1C)C(=O)Nc1cccc(OC)c1 | -0.0998

SMILES | z-score
Cc1cs/c(=N/C(=S)Nc2ccccc2)n1C | 0.0604
Cc1ccccc1Oc1cc(NC(=O)CCCn2nc(C)c([N+](=O)[O-])c2C)cc([N+](=O)[O-])c1 | -0.437
CCc1ccc(CC)c(S(=O)(=O)Nc2ccc(C(=O)O)c(O)c2)c1 | 0.159
CSCCCNC(=S)N1CCN(S(=O)(=O)c2cccc(C(F)(F)F)c2)CC1 | -0.0575
COc1ccc2c(c1)CCc1c(C(=O)N3CCc4ccccc4C3)noc1-2 | -1.69
CCC(=O)c1ccc(OCC(=O)O)cc1 | 0.544
O=C(NCCO)C(=O)NCC1OCCCN1S(=O)(=O)c1cccs1 (stereo unspecified) | 0.171
CCOc1ccc(NS(=O)(=O)c2ccc3[nH]cc(C(=O)NCC4CCCO4)c(=O)c3c2)cc1 (stereo unspecified) | 0.22
CCCCc1ccc(NC=C2C(=O)OC3(CCCCC3)OC2=O)cc1 | 0.169
O=C(Oc1ccc(Br)cc1C(=S)N1CCCC1)c1ccccc1Cl | -0.0754
COc1ccc(OC)c(NC(=O)CSc2nnc(C)n2Cc2ccccc2)c1 | -0.0689
Cc1ccc(C(=O)c2ccc(N3CCOCC3)c(F)c2)cc1 | 1.22
CCN(c1ccc2c(c1)OCO2)S(=O)(=O)c1cc(Br)cc2c1N(C(C)=O)CC2 | -0.362
O=C1NC2(CCCCC2)C(=O)N1Cc1ccc([N+](=O)[O-])cc1 | -0.131
COC(=O)Cn1c(=NC(=O)c2ccc(Cl)s2)sc2cc(C)ccc21 | 0.116
Cc1occc1C(=O)n1nnc2ccccc21 | -0.524
O=C(NCCC1=CCCCC1)C(=O)NCC(c1ccco1)N1CCN(c2ccccc2)CC1 (stereo unspecified) | -0.375
Cc1ccc(/C=N/N2C(=O)c3ccccc3NC2c2ccc(C)cc2)cc1 (stereo unspecified) | -0.203
CCOC(=O)c1c(NC(=O)C(=O)N/N=C/c2ccc(O)c(OC)c2)sc2c1CCCCC2 | -0.156
COc1ccc(-n2c(C)c(C(C)=O)c(C(C)=O)c2C)cc1 | 0.311
OC1CCCN(Cc2c3ccccc3cc3ccccc23)C1 (stereo unspecified) | 1.32
O=C(CCc1nc2ccccc2[nH]c1=O)OCC(=O)N1CCc2ccccc21 | -0.85
COc1ccc(-c2nn(-c3ccccc3)cc2/C=N/N2C(=O)CSC2=S)cc1 | -0.461
